# In the supplement of paper PMC9174493:
# Some of the results follow. Single values of this set are uncertain. Values with irradiation are relative to irradiated vehicle.
# Test system: A549-Dual
# Assay: ISRE reporter (Lucia luciferase) activity, viability-corrected, relative to vehicle (fold change vs vehicle); higher = more activation of STING-IRF / NF-kB immune response reporter
# Conditions: 10 µM; irradiation: 8 Gy/4 fr
row,Compound,ISRE reporter
1,COc1ccccc1OCC(O)CN1CCN(CC(=O)Nc2c(C)cccc2C)CC1 (stereo unspecified) [Ranolazine],0.517
2,Cc1ncc(COP(=O)(O)O)c(C=O)c1O [Pyridoxal phosphate],0.823
3,COc1cc([N]([Na])S(=O)(=O)c2ccc(N)cc2)nc(OC)n1 [SulfadiMethoxine sodium],0.84
4,"C1CCN2CC3CC(CN4CCCCC34)C2C1.O.O.O.O.O.O=S(=O)(O)O (single isomer, unassigned; (-)) [(-)-Sparteine Sulfate]",0.932
5,CN1CCc2cc3c(cc2C(=O)Cc2ccc4c(c2C1)OCO4)OCO3 [Protopine],0.863
6,CC1(C)SC2C(NC(=O)C(N)c3ccc(O)cc3)C(=O)N2C1C(=O)O (stereo unspecified) [Amoxicillin],0.805
7,CCNC1CN(CCCOC)S(=O)(=O)c2sc(S(N)(=O)=O)cc21 (stereo unspecified) [Brinzolamide],1.04
8,CNC(=O)c1cnn(-c2nc(N)c3ncn(C4OC(CO)C(O)C4O)c3n2)c1 (stereo unspecified) [Regadenoson],0.74
9,O.O.OCC1OC(OC2OC(CO)C(O)C(O)C2O)C(O)C(O)C1O [D-(+)-Trehalose dihydrate],0.902
10,CC1(C)SC2CC(=O)N2C1C(=O)OCOC(=O)C1N2C(=O)C(NC(=O)C(N)c3ccccc3)C2S(=O)(=O)C1(C)C.Cc1ccc(S(=O)(=O)O)cc1 (stereo unspecified) [Sultamicillin Tosylate],0.843
11,CCN(CC)CCNC(=O)c1cc(Cl)c(N)cc1OC [Metoclopramide],0.744
